Hit rate of the full screen: of about 310,000 compounds, about 14,000 (4.5%) showed an effect of 50% or more. The effect is printed as a negative number. The list shows a part of the results.
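Note: peak tail current of the secondary pulse compared with the same well before compound.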

Sequence of human ether-à-go-go-related gene (hERG) potassium channel (Q12809 whole entry, looked up): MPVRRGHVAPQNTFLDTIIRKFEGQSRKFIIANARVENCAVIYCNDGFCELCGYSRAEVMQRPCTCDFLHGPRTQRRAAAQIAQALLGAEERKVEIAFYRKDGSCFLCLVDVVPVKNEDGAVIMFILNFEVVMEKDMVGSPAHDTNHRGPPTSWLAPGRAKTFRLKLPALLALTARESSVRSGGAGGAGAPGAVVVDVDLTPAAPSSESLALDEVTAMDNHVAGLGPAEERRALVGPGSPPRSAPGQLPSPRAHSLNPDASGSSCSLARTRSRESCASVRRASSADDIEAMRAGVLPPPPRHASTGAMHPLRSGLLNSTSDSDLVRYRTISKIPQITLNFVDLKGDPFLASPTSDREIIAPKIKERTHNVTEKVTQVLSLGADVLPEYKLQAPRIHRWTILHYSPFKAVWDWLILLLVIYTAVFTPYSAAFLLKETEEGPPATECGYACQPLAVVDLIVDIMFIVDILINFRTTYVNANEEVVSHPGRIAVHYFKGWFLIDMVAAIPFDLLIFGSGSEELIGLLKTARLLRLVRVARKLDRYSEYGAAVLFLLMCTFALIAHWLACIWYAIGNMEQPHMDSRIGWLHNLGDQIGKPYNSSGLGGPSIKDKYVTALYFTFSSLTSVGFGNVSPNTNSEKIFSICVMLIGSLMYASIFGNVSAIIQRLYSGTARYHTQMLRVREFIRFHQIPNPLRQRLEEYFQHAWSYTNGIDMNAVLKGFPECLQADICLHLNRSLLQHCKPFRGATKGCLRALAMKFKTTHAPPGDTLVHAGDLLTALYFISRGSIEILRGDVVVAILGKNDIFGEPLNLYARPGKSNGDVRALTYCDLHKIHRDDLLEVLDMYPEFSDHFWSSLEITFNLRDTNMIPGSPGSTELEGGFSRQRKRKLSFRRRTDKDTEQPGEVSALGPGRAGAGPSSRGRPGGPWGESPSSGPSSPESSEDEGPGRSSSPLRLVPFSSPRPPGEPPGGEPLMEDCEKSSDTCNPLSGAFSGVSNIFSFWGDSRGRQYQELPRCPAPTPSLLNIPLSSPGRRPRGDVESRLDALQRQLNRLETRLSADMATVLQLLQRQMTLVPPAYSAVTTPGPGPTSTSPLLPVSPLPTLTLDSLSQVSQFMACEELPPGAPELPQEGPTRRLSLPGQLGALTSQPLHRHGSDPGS

The assay addresses human ether-à-go-go-related gene (hERG) potassium channel (human, UniProt Q12809). The experiment in a line: primary screen, population patch clamp on CHO cells stably expressing hERG.
For `CC1=CC(c2ccccc2)n2nc(NC(=O)CCCC(=O)O)nc2N1` (stereo not drawn), the “hERG current change (%, negative = inhibition) at 10uM” value is 26.3%.

With `CCOC(=O)CSc1nnc(CNC(=O)c2ccco2)n1C`, the “hERG current change (%, negative = inhibition) at 10uM” value is 9.19%.

On to `N#CC(C#N)=Cc1cccnc1`, for which the “hERG current change (%, negative = inhibition) at 10uM” value is listed as 10.2%.

As for `CC(Oc1ccc(Cl)cc1Cl)c1ccnc(N)n1` (stereo not drawn), the “hERG current change (%, negative = inhibition) at 10uM” value is 15.3%.

As for `COc1cccc(C(=O)NC(=S)Nc2ccc3oc(=O)ccc3c2)c1`, the “hERG current change (%, negative = inhibition) at 10uM” value is on record as -4.57%.

Take `S=C(Nc1ccc2c(c1)OCO2)Nc1ccccc1Cl`: the “hERG current change (%, negative = inhibition) at 10uM” value was 2.65%.

Turning to `N#Cc1nc(-c2cccc(Cl)c2)oc1NCc1cccnc1`, the “hERG current change (%, negative = inhibition) at 10uM” value is -38.3%.

`COc1ccc(OC)c(N(CC(=O)NCc2ccccc2)S(=O)(=O)c2ccc(OC)c(OC)c2)c1`: the “hERG current change (%, negative = inhibition) at 10uM” value came to 18.3%.

Consider `CCOP(=O)(OCC)C(NC(=O)c1cccs1)C(F)(F)F` (stereo not drawn), for which the “hERG current change (%, negative = inhibition) at 10uM” value is 18.4%.

`CSC1=C(C#N)C(c2ccc(Cl)cc2)C2=C(CC(C)(C)CC2=O)N1` (stereo not drawn): the “hERG current change (%, negative = inhibition) at 10uM” value is recorded as -6.94%.

As for `Cn1c(=O)c2c(ncn2CCC(=O)N/N=C/c2ccncc2)n(C)c1=O`, the “hERG current change (%, negative = inhibition) at 10uM” value is 5.33%.

Take `CCOc1ccc(NC(=O)CN(C)C(=O)c2cc(C)oc2C)cc1OCC`: the “hERG current change (%, negative = inhibition) at 10uM” value was -8.5%.

On to `COc1cccc(C(=O)/C=C/c2ccc(SC)cc2)c1`, for which the “hERG current change (%, negative = inhibition) at 10uM” value was -5.67%.

Take `Cc1cccc(NC(=O)CS(=O)(=O)c2cn(C)c3ccccc23)c1C`: the “hERG current change (%, negative = inhibition) at 10uM” value is reported as -2.18%.

Consider `CCc1ccccc1NC(=O)C1C2C=CC(O2)C1C(=O)O` (stereo not drawn), for which the “hERG current change (%, negative = inhibition) at 10uM” value amounted to 18.1%.

On to `Cc1ccc(SCC(=O)Nc2ccc3c(c2)C(=O)N(C)C3=O)cc1`, for which the “hERG current change (%, negative = inhibition) at 10uM” value turned out to be 10.1%.

In the case of `CCOC(=O)c1sc(NC(=O)CN2CCN(c3ccc(OC)cc3)CC2)nc1C`, the “hERG current change (%, negative = inhibition) at 10uM” value was -20.6%.

As to `Cc1ccc(S(=O)(=O)N(CC(=O)NCc2ccncc2)C2CCCCC2)cc1`, the “hERG current change (%, negative = inhibition) at 10uM” value is given as -63%.

`CCC(C)NC(=O)c1ccccc1-c1ccccc1C(=O)NC(C)CC` (stereo not drawn): the “hERG current change (%, negative = inhibition) at 10uM” value came to 5.37%.

For the compound `COc1cccc(C(=O)NCCSc2ccc(C)cc2)c1`, the “hERG current change (%, negative = inhibition) at 10uM” value is reported as -38.5%.

For `C/C(=N\NC(=O)c1nnn(-c2nonc2N)c1CN1CCC(C)CC1)c1cccc(Br)c1`, the “hERG current change (%, negative = inhibition) at 10uM” value is -7.59%.

As for `CCC(C)(C)NC(=O)C(c1ccccc1F)N(C(=O)c1ccn[nH]1)c1ccccc1` (stereo not drawn), the “hERG current change (%, negative = inhibition) at 10uM” value is -10%.

In the case of `Cc1cc(C)cc(NC(=O)Nc2ccccc2N2CCCCC2)c1`, the “hERG current change (%, negative = inhibition) at 10uM” value is -5.42%.

On to `COc1cccc(NC(=O)Nc2nnc(CC(=O)Nc3ccccc3)s2)c1`, for which the “hERG current change (%, negative = inhibition) at 10uM” value was 7.49%.

Regarding `Nc1c(C(=O)Nc2cccc(Cl)c2Cl)sc2nc(-c3cccnc3)ccc12`, the “hERG current change (%, negative = inhibition) at 10uM” value stood at 11.4%.

For the compound `COc1ccccc1OCc1ccc(C(=O)N(C)c2ccccc2)o1`, the “hERG current change (%, negative = inhibition) at 10uM” value stood at 7.76%.

As to `CCn1c(COc2cccc(C)c2)nnc1SCC(=O)NC1CCCC1`, the “hERG current change (%, negative = inhibition) at 10uM” value is listed as 2.63%.

For `Cc1ccc(C(=O)/C=C/c2ccc(-c3ccc(C)cc3)o2)cc1`, the “hERG current change (%, negative = inhibition) at 10uM” value is given as 2.07%.

Regarding `NC(=O)CN(c1ccc(Cl)cc1)S(=O)(=O)c1ccccc1`, the “hERG current change (%, negative = inhibition) at 10uM” value is listed as -9.45%.

With `CCOCCCNC(=O)c1c[nH]c2ccc(C)cc2c1=O`, the “hERG current change (%, negative = inhibition) at 10uM” value turned out to be 11.3%.

Regarding `COc1ccc(-n2ncc3c(NC(C)C)ncnc32)cc1`, the “hERG current change (%, negative = inhibition) at 10uM” value is recorded as 0.368%.

Consider `Cc1ccn2cc(C(=O)NC3CCN(Cc4ccccc4)CC3)nc2c1`, for which the “hERG current change (%, negative = inhibition) at 10uM” value is recorded as -28.8%.

Turning to `COc1cc(C(=O)NCC(=O)NC(C)CCc2ccccc2)cc(OC)c1OC` (stereo not drawn), the “hERG current change (%, negative = inhibition) at 10uM” value amounted to 4.05%.

For the compound `CC(NC(=O)c1cc(F)c(F)cc1Cl)C1CC2CCC1C2` (stereo not drawn), the “hERG current change (%, negative = inhibition) at 10uM” value is on record as -5.43%.

Take `COC(=O)c1cn(C(=O)c2cc(C)cc(C)c2)c2ccccc12`: the “hERG current change (%, negative = inhibition) at 10uM” value is recorded as 30.7%.

With `Cc1cc(C)nc(-n2nc(C)cc2NC(=O)CN2CCc3ccccc3C2)n1`, the “hERG current change (%, negative = inhibition) at 10uM” value is -68.7%.

With `COc1cccc(-c2ncc3ccccc3c2COC(=O)c2ccc(F)cc2)c1`, the “hERG current change (%, negative = inhibition) at 10uM” value is given as 17.2%.

`Cc1ccc(-c2nnc3sc(-c4ccncc4)nn23)cc1`: the “hERG current change (%, negative = inhibition) at 10uM” value is given as -41.4%.

For `O=C(O)c1ccc(-c2nnc(-c3ccc([N+](=O)[O-])cc3)o2)cc1`, the “hERG current change (%, negative = inhibition) at 10uM” value is 13.6%.

On to `Fc1ccc(Cn2c(-c3cscn3)nc3ccccc32)c(Cl)c1`, for which the “hERG current change (%, negative = inhibition) at 10uM” value is on record as 13.8%.

`O=C1NC(=O)N(Cc2ccccc2)C(=O)/C1=C\C=C\c1ccco1`: the “hERG current change (%, negative = inhibition) at 10uM” value is 25.4%.

With `CCCS(=O)(=O)N1CCN(C(=O)c2ccco2)CC1`, the “hERG current change (%, negative = inhibition) at 10uM” value worked out at 22.7%.

As for `COc1ccc([C@H]2CC(=O)C=C(c3ccccc3C(F)(F)F)C2)cc1`, the “hERG current change (%, negative = inhibition) at 10uM” value is recorded as 4.66%.

As to `CN1C(=O)C(=Cc2ccc(OCC(=O)Nc3ccccc3)cc2)C(=O)N(C)C1=O`, the “hERG current change (%, negative = inhibition) at 10uM” value was found to be 17.4%.

Consider `O=C(Nc1nc2ccccc2s1)c1cccc(S(=O)(=O)N2CCc3ccccc32)c1`, for which the “hERG current change (%, negative = inhibition) at 10uM” value is on record as -7.03%.

Turning to `CN1CCN(c2ccc(Cl)cc2NC(=O)c2ccc(=O)n(C)n2)CC1`, the “hERG current change (%, negative = inhibition) at 10uM” value is -58.3%.

Regarding `O=C(NCC1CCCO1)C1CCC(CNS(=O)(=O)c2ccccc2)CC1` (stereo not drawn), the “hERG current change (%, negative = inhibition) at 10uM” value worked out at 15.5%.

In the case of `CCCOc1cc(C)c(S(=O)(=O)NCCOC)cc1C`, the “hERG current change (%, negative = inhibition) at 10uM” value was -5.35%.

Take `CCN(CC)S(=O)(=O)c1ccc(N2CCOCC2)c(NC(=O)c2ccc(OC)c([N+](=O)[O-])c2)c1`: the “hERG current change (%, negative = inhibition) at 10uM” value is given as -24.5%.

On to `CCOc1cccc(=O)c2c(C)oc(C)c12`, for which the “hERG current change (%, negative = inhibition) at 10uM” value is 0.291%.

Take `S=c1[nH]nc(-c2ccccc2)n1/N=C/c1ccc(Cl)cc1`: the “hERG current change (%, negative = inhibition) at 10uM” value came out at 20.1%.

With `Cc1csc(C(=O)O)c1-c1c(C)csc1C(=O)O`, the “hERG current change (%, negative = inhibition) at 10uM” value was 1.61%.

For `O=[N+]([O-])c1cc2c(cc1CN1CCN(CCOCCO)CC1)OCO2`, the “hERG current change (%, negative = inhibition) at 10uM” value turned out to be 15.8%.

Turning to `N#Cc1ccc(OCC(O)CS(=O)(=O)c2ccccc2)cc1` (stereo not drawn), the “hERG current change (%, negative = inhibition) at 10uM” value is reported as -21%.

`C/C=C1\COC(C(=O)NCc2cccc(OC)c2OC)(C(F)(F)F)C=C1C=C1CCCCC1` (stereo not drawn): the “hERG current change (%, negative = inhibition) at 10uM” value is listed as -1.9%.

In the case of `C=CCNc1cnn(-c2ccc(C)cc2)c(=O)c1Sc1ccc(C)cc1`, the “hERG current change (%, negative = inhibition) at 10uM” value was -79.4%.

For the compound `O=c1[nH]c(=O)n(Cc2ccccc2)c2nc(-c3ccc(C(F)(F)F)cc3)n(CCO)c12`, the “hERG current change (%, negative = inhibition) at 10uM” value is 5.7%.

(Values after PMC4336329 (PLoS ONE, 2015).)
